Laboratory results published in PubChem BioAssay (Tox21).
Values joined by “and” are separate entries in the source; they are usually repeats but may differ in a detail not shown here. Equal entries are not always repeated. Inconclusive results, whose numbers are uncertain, are shown with a selection of clear calls. Where the call is inconclusive, the potency comes from a doubtful curve fit. Active and inactive are the calls of the source. The call rests on the fitted dose curve; in most records, active means well fitted activation curve with a large enough effect in the signal ratio in the repeat runs (not every such curve was filed as active); inconclusive means weak or mixed curves, or effect the other way; inactive means flat fitted curve, though single readings scatter; the % refers to the signal ratio.
On the % scale 0 is the no-effect control and ±100 the full control effect; potency means the concentration at half of the fitted maximal effect; tags describe the fitted curve by direction and shape or compound fluorescence and quenching.

These molecules were tested against Estrogen receptor beta (Homo sapiens) (UniProt Q92731) (assay: qHTS assay to identify small molecule agonists of the estrogen receptor beta (ER-beta) signaling pathway (AID 1259377)). Conditions: ER-beta-UAS-bla HEK293T, beta-lactamase FRET ratio, 16 h; activation: at 92.4 µM (top of the series) unless noted.
Sequence of UniProt Q92731 (Q92731 whole entry, looked up): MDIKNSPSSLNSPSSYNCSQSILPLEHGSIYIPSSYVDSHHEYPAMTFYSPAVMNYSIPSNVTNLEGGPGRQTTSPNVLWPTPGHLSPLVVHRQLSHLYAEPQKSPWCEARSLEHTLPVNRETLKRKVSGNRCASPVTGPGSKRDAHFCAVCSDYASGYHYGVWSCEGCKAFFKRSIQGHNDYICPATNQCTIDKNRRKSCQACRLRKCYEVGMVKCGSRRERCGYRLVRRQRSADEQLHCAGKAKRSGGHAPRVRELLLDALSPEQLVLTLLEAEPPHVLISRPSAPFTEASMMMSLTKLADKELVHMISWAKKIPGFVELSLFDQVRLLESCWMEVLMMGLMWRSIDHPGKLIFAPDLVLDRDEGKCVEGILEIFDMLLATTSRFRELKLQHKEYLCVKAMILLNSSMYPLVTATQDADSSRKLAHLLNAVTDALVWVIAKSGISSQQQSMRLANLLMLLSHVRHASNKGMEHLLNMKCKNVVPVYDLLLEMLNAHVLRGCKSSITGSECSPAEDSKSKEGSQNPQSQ
From the text: U.S. Tox21 Program National Center for Advancing Translational Sciences [NCATS] NIH Chemical Genomics Center [NCGC] U.S. Environmental Protection Agency [EPA] National Institutes of Environmental Health Sciences [NIEHS] National Toxicology Program [NTP] U.S. Food and Drug Administration [FDA] Tox21 Assay Overview: Estrogen receptor (ER), a nuclear hormone receptor, plays an important role in development, metabolic homeostasis and reproduction. Two subtypes of ER, ER-alpha and ER-beta, have similar expression patterns with some uniqueness in both types. Endocrine disrupting chemicals (EDCs) and their interactions with steroid hormone receptors like ER causes disruption of normal endocrine function. To identify the compounds that activate ER signaling, an ER beta-UAS-bla GripTite cell line (Life technologies, Madison, WI, USA) containing a beta-lactamase reporter gene under the control of an Upstream Activator Sequence (UAS) was used to screen Tox21 10K compound library.
Tox21 Assay Protocol Summary: ER-beta-UAS-bla HEK293T cells were dispensed at 2,000 cells/5 uL of assay medium containing 2% charcoal stripped FBS per well into black wall/clear-bottom 1536-well plates using a Multidrop Combi (ThermoFisher Scientific, Waltham, MA) dispenser. After the assay plates were incubated at a 37C and 5% CO2 for 6 hr, 23 nL of compounds dissolved in DMSO, positive controls or DMSO only was transferred to the assay plate by a Pintool station (Kalypsys, San Diego, CA). The plates were incubated at 37C and 5% CO2 for 16 hr. Then 1 uL of LiveBLAzerTM B/G FRET substrate was added using a BioRAPTR FRD (Flying Reagent Dispenser, Aurora Discovery, San Diego, CA). After the plates were incubated at room temperature for 2 hours, fluorescence intensity was measured by an Envision plate reader (PerkinElmer, Shelton, CT).
`c1ccc2scnc2c1` was tested, and the activation was inconclusive: 10%. `CC(C)c1ccc2c(c1)CC[C@H]1[C@](C)(CN)CCC[C@]21C` was tested, and the Potency was inconclusive: 77 µM [falling, single point]. `C#C[C@]1(O)CC[C@H]2[C@@H]3[C@H](C)CC4=C(CCC(=O)C4)[C@H]3CC[C@@]21C` was tested, and the Potency was active: 0.188 µM. For `Cc1cc(N)n(-c2ccccc2)n1`, the “activation” value was inactive: 0%. For `CCCCCCCC/C=C\CCCCCCCC(=O)OCCOC(=O)CCCCCCC/C=C\CCCCCCCC`, the activation was inconclusive: 2.22%. With `CN1C(=O)N(c2ccccc2Br)Cc2cnc(Nc3ccc4c(c3)OCC(CO)O4)nc21` (stereo not given) the Potency was inconclusive: 43.3 µM [rising, partial curve]. `Cc1cccc(Br)c1` was tested, and the Potency was inconclusive: 68.9 µM [rising, partial curve, poor fit]. For `CCN1CCC[C@H]1CNC(=O)c1c(O)c(Cl)cc(Cl)c1OC`, the “activation” value was inactive: -0.299% [at 42.5 µM]. In the case of `Cc1c(F)c(N2CCNC(C)C2)cc2c1c(=O)c(C(=O)O)cn2C1CC1` (stereo not given), the activation is reported as inconclusive: 12.7% [at 42.5 µM]. In the case of `CN(C)CCC=C1c2ccccc2C=Cc2ccccc21`, the Potency is reported as inconclusive: 33.5 µM [rising, partial curve, poor fit]. In the case of `CC(C)=CCC/C(C)=C/CC/C(C)=C/C(=O)OCC(=O)[C@@]1(O)CC[C@H]2[C@@H]3CCC4=CC(=O)C=C[C@]4(C)[C@H]3[C@@H](O)C[C@@]21C`, the “activation” value is reported as inactive: -4.7% [at 42.5 µM]. `CC(C)c1cccc(C(C)C)c1NC(=O)NS(=O)(=O)c1cc(C(C)(C)O)co1` was tested, and the “activation” value was inactive: 8.33%. `CC(C)OC(=O)c1cc(C(=O)OC(C)C)cc([N+](=O)[O-])c1` was tested, and the activation was inconclusive: 0.869%. In the case of `COc1cccc(O)c1O`, the Potency is reported as inconclusive: 31.8 µM [fluorescent]. For `C1CC(COCC2CO2)CCC1COCC1CO1` (stereo not given), the Potency was inconclusive: 54.5 µM [rising, partial curve]. With `COC(=O)/C=C/c1ccccc1` the Potency was “inactive”. `Nc1ccccc1O` was tested, and the Potency was inconclusive: 19.1 µM [rising, partial curve]. With `O=C(Oc1ccccc1)c1cccc(C(=O)Oc2ccccc2)c1` the Potency was inconclusive: 22.9 µM [fluorescent, full curve]. `NC(=O)c1ccccc1O` was tested, and the Potency was inconclusive: 33.5 µM [rising, single point]. `O=c1[nH]sc2cc(Cl)ccc12` was tested, and the Potency was inconclusive: 13.3 µM [falling, full curve]. In the case of `C=C1CC[C@H](O)C/C1=C\C=C1/CCC[C@]2(C)[C@@H]([C@H](C)CCCC(C)C)CC[C@@H]12`, the Potency is reported as inconclusive: 60.6 µM [single point]. With `NC1[C@H]2CN(c3nc4c(cc3F)c(=O)c(C(=O)O)cn4-c3ccc(F)cc3F)C[C@@H]12` (stereo not given in full) the Potency was inconclusive: 26.6 µM [activator]. `Brc1cc2ccccc2c2ccccc12` was tested, and the Potency was inconclusive: 30.9 µM [rising, full curve]. `Cc1c(C2(c3cc(Br)c(O)c(Br)c3C)OS(=O)(=O)c3ccccc32)cc(Br)c(O)c1Br` was tested, and the activation was inconclusive: 8.17%. `CCCCCCNC(=O)n1cc(F)c(=O)[nH]c1=O` was tested, and the activation was inconclusive: 0.165% [at 42.5 µM]. For `Oc1ccc(C2CNCCc3c2cc(O)c(O)c3Cl)cc1` (stereo not given), the “activation” value was inactive: -0.0215% [at 42.5 µM]. With `O=C=NCCCCCCN=C=O` the Potency was “inactive”. With `O=C(O)c1cn(C2CC2)c2cc(N3CCNCC3)c(F)cc2c1=O` the “activation” value was inactive: 7.19% [at 42.5 µM]. In the case of `CN1CCCN(C(c2ccccc2)c2ccc(Cl)cc2)CC1` (stereo not given), the Potency is reported as inconclusive: 33.5 µM [rising, single point]. For `O=C1c2ccccc2C(=O)C1(O)O`, the Potency was inconclusive: 24.5 µM [rising, partial curve, poor fit]. In the case of `CNCCCC12CCC(c3ccccc31)c1ccccc12`, the activation is reported as inconclusive: -6.08%. In the case of `Cc1cccc(C)c1OCC(=O)N[C@@H](Cc1ccccc1)[C@@H](O)C[C@H](Cc1ccccc1)NC(=O)[C@H](C(C)C)N1CCCNC1=O`, the Potency is reported as inconclusive: 33.5 µM [partial curve, poor fit]. In the case of `CN1C(=O)c2ccccc2C1=O`, the activation is reported as inconclusive: 0.243%. For `CN(C)c1ccc(C2(c3ccc(N(C)C)cc3)OC(=O)c3cc(N(C)C)ccc32)cc1`, the Potency was inconclusive: 68.4 µM. With `C=CC(=O)OCCn1c(=O)n(CCOC(=O)C=C)c(=O)n(CCOC(=O)C=C)c1=O` the Potency was inconclusive: 24.3 µM [rising, partial curve]. In the case of `CCCCCCOC(=O)c1ccccc1O`, the activation is reported as inconclusive: 6.11%. In the case of `OCC#CCO`, the Potency is reported as inconclusive: 78.1 µM [rising, partial curve, poor fit]. With `CNS(=O)(=O)c1cc(C(=O)N2CCC(CCN3C4CCC3CC(n3c(C)nc5ccccc53)C4)(c3cccc(F)c3)CC2)c(Cl)cc1F` (stereo not given) the Potency was inconclusive: 12.2 µM [rising, full curve]. With `CCCCC1C(=O)N(c2ccccc2)N(c2ccc(O)cc2)C1=O` (stereo not given) the Potency was inconclusive: 23.7 µM [rising, partial curve]. With `O=C1c2cccc(O)c2C(=O)c2c(O)cccc21` the Potency was inconclusive: 19.5 µM [activator, full curve] and inconclusive: 11.9 µM [fluorescent].
